Test results taken from PubChem BioAssay AID624417 (National Center for Advancing Translational Sciences (NCATS), 2012).
Screen size: about 410,000 compounds; about 6,400 (1.6%) were called active. The shares of active, inactive and inconclusive entries below differ from those in the screen. Calls come from the whole dose curve; as a rule, active = well fitted inhibition curve with a large enough effect; inconclusive = small, poorly fitted or top-dose-only effect; inactive = no such curve, though single readings can be large or run the other way. Potencies of inconclusive entries are left out as doubtful fits.
Note: nearly all actives have a fitted effect of over 55% in size.
Potency is the fitted concentration of half-maximal effect; tags give direction and shape of the fitted curve.

Each compound was assayed against Glucagon-like peptide 1 receptor (Homo sapiens) (UniProt P43220) (assay: qHTS of GLP-1 Receptor Inverse Agonists (Inhibition Mode)). Conditions: HEK293 GLP-1R CRE-luciferase, luminescence, 24 h, GLP-1R form is constitutively active; series mostly up to 38.3 µM.
UniProt P43220, sequence (P43220 whole entry, looked up): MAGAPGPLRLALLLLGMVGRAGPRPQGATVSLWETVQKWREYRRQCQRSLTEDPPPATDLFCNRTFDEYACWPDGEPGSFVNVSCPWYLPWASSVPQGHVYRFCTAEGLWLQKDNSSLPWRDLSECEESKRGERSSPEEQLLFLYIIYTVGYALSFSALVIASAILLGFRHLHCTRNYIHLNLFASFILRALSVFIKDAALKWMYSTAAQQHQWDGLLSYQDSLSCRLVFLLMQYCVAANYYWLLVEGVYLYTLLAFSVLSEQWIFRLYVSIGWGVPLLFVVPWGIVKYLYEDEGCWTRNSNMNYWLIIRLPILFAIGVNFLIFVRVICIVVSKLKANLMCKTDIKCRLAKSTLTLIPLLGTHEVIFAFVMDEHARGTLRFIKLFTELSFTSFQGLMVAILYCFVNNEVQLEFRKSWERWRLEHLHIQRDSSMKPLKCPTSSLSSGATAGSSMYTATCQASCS
Summary of the method: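 HEK293 cells stably co-expressing constitutively active GLP-1R and a cAMP-responsive luciferase reporter were seeded in DMEM with 10% Nu serum, given compounds after 12 h, and incubated 24 h at 37 deg C. Luminescence was then read.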
With `COc1ccc(NC(=O)c2cc3c(s2)CCC(C)C3)cc1S(=O)(=O)N1CCOCC1` (stereo not drawn) the Potency was inconclusive [inhibitor, partial curve, poor fit].
In the case of `CCOC(=O)C(C)On1c(-c2cccc(Cl)c2)nc2ccc([N+](=O)[O-])cc21` (stereo not drawn), the Potency is reported as inconclusive [inhibitor, single point].
`CCCc1cc(N2CCOCC2)n2nc(C)c(-c3ccccc3)c2n1` was tested, and the Potency was “inactive”.
For `CCNC(=S)N/N=C(\C)c1cc2ccccc2o1`, the Potency was active: 4.47 µM.
With `O=c1[nH]c(CN2CCN(S(=O)(=O)/C=C/c3ccccc3)CC2)nc2cc(Cl)ccc12` the Potency was inconclusive [inhibitor, partial curve, poor fit].
For `CC1(C(=O)O)CCCN1C(=O)c1ccc(Cl)cc1Cl` (stereo not drawn), the Potency was “inactive”.
`Cc1ccc(Nc2c(-c3ccccc3)nc3cnccn23)cc1` was tested, and the Potency was inconclusive [inhibitor, single point].
`O=C(CNC(=O)OCc1ccccc1)OC(c1ccccc1)c1ccccc1` was tested, and the Potency was inconclusive [inhibitor, partial curve, poor fit].
For `Cc1ccc(Cl)cc1NC(=O)Cn1c(=O)n(CCC(=O)NCc2ccc3c(c2)OCO3)c(=O)c2sccc21`, the Potency was “inactive”.
For `CC(=O)c1ccc(Nc2cc(C)nc3ccccc23)cc1`, the Potency was inconclusive [inhibitor, single point].
For `CCOc1cccc(CN2CCN(Cc3ccc(C)o3)C(CCO)C2)c1O` (stereo not drawn), the Potency was inconclusive [inhibitor, single point].
`CC1(c2nnc(-c3ccccc3)o2)CC(c2ccc([N+](=O)[O-])cc2)=NO1` (stereo not drawn) was tested, and the Potency was inconclusive [inhibitor, partial curve, poor fit].
`Oc1cccc(-c2nc3c4c(ncn3n2)-c2ccccc2CC42CCCC2)c1` was tested, and the Potency was inconclusive [inhibitor, single point].
In the case of `COc1ccc(-c2[nH]ncc2CN2CCCOc3c(cccc3OC)C2)c(OC)c1`, the Potency is reported as inconclusive [inhibitor, single point].
In the case of `COC(=O)c1ccc(OCC(=O)NC2CCCCCCC2)cc1`, the Potency is reported as inconclusive [inhibitor, single point].
`O=S(=O)(c1ccccc1)c1nc(-c2ccccc2Cl)oc1NCCCN1CCOCC1` was tested, and the Potency was inconclusive [inhibitor, single point].
In the case of `O=C(COC(=O)C1CCN(c2ccc(C(F)(F)F)cn2)CC1)c1ccc(Cl)cc1`, the Potency is reported as inconclusive [inhibitor, single point].
With `COc1cccc(CN2CCN(c3cccc(C(F)(F)F)c3)CC2)c1OC` the Potency was “inactive”.
